Results taken from PubChem BioAssay AID504832 (National Center for Advancing Translational Sciences (NCATS), 2011).
Screen size: about 310,000 compounds; about 18,000 (5.8%) were called active. This list was built around the results that the source calls inconclusive (neither active nor inactive); the mix of calls is not that of the screen. The call rests on the fitted dose curve; in most records, active means well fitted inhibition curve with a large enough effect; inconclusive means small, poorly fitted or top-dose-only effect, or another doubt; inactive means no such curve, though single readings can be large or run the other way. No potency is given beside an inconclusive call; the fits are too rough.
On the % scale 0 is the no-effect control and ±100 the full control effect; potency means the concentration at half of the fitted maximal effect; tags describe the fitted curve by direction and shape.

Test: Primary qHTS for delayed death inhibitors of the malarial parasite plastid, 48 hour incubation
Details: P. falciparum luciferase growth in erythrocytes; series mostly up to 28.7 µM; activity change, negative = inhibition: at the top concentration
In short: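 Parasite viability was followed by luminescence of a genomically integrated firefly luciferase. Cultures held 0.1% parasitemia at 2% hematocrit (final), incubated under 5% CO2 at 37 C.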
For `Cc1ccccc1N(CC(=O)NCC1CCCO1)C(=O)CNS(=O)(=O)c1ccc(F)cc1` (centres undefined), the “activity change, negative = inhibition” value was inactive: 3.98%.
For `CCN(CC(=O)Nc1c(F)cccc1F)C(=O)c1cccnc1Sc1ccccc1`, the “activity change, negative = inhibition” value was inactive: 20.9%.
In the case of `COC(=O)c1[nH]c2ccccc2c1NC(=O)C(C)N1CCN(C(=O)c2ccco2)CC1` (centres undefined), the Potency was inconclusive [inhibitor, partial curve, poor fit].
In the case of `CN(C)c1ccc(CN(C(=O)C2COc3ccccc3O2)C2CCS(=O)(=O)C2)cc1` (centres undefined), the Potency was inconclusive [inhibitor, single point].
For `COc1cc2c(c(OC)c1OC)-c1c(cc3c(c1OC)OCO3)[C@@H](OC(C)=O)[C@H](C)[C@H](C)C2`, the Potency was active: 13.1 µM.
In the case of `CCOC(=O)N1CCN(Cc2nc(N)nc(Nc3ccc(OCC)cc3)n2)CC1`, the Potency was inconclusive [inhibitor, partial curve, poor fit].
For `CCOc1ccccc1NC(=O)CSc1ccccc1`, the Potency was inconclusive [inhibitor, single point].
With `CCOc1ccccc1C1NC(=O)NC(C)=C1C(=O)OC1CCCC1C` (centres undefined) the Potency was inconclusive [inhibitor, single point].
In the case of `O=C(Nc1ccccc1Cl)ON=C1c2ccccc2-c2ccccc21`, the “activity change, negative = inhibition” value was inactive: 41.4%.
With `COc1ccc(CN2CCC(C(=O)c3ccc(Cl)cc3)CC2)cc1` the Potency was inconclusive [inhibitor, partial curve, poor fit].
With `CCN(CC(=O)Nc1ccc2c(c1)OCCO2)Cc1nc2cc(Cl)ccc2c(=O)[nH]1` the Potency was inconclusive [inhibitor, single point].
In the case of `O=C(CSc1nnc(-c2cccs2)n1Cc1ccco1)c1ccc2c(c1)OCO2`, the Potency was inconclusive [inhibitor, partial curve, poor fit].
In the case of `COc1ccc(C(=O)COC(=O)CN2C(=O)c3ccccc3C2=O)c(OC)c1`, the Potency was inconclusive [inhibitor, single point].
In the case of `CCNC(=S)NNC(=O)c1csc(C(C)C)c1`, the “activity change, negative = inhibition” value was inactive: 199%.
With `CC(=O)N1N=C(c2ccncc2)OC12CCCCCC2` the Potency was inconclusive [inhibitor, single point].
With `Cc1cc(N2CCN(C(=O)c3ccco3)CC2)n2nc(C)c(-c3ccc(Cl)cc3)c2n1` the “activity change, negative = inhibition” value was inactive: 14.4%.
For `NC(=O)c1nsc(C(=O)N(c2ccccc2F)C(C(=O)NCc2ccc(F)cc2)c2ccc(O)cc2)c1N` (centres undefined), the Potency was inconclusive [inhibitor, single point].
For `Cc1cc(C)n2c(SCC(=O)N3CCN(S(=O)(=O)c4ccc(Cl)cc4)CC3)nnc2n1`, the Potency was inconclusive [inhibitor, full curve, poor fit].
In the case of `COc1ccc2c(c1)Cc1sc(NC(=O)c3cccnc3)nc1-2`, the Potency was inconclusive [inhibitor, partial curve].
In the case of `O=C(CCS(=O)(=O)c1cc2c(cc1Cl)NC(=O)CO2)NCCc1ccccc1`, the “activity change, negative = inhibition” value was inactive: 1.13%.
In the case of `COc1ccccc1S(=O)(=O)Cc1ccc(C(=O)NC2CCCCC2)o1`, the Potency was inconclusive [inhibitor, partial curve, poor fit].
With `CCC(=O)N=c1sc2ccccc2n1-c1ccccc1` the “activity change, negative = inhibition” value was inactive: 28.9%.
With `CCOC(=O)c1cc2sc(C)cc2n1C(C)C(=O)OCC` (centres undefined) the “activity change, negative = inhibition” value was inactive: 24.1%.
With `COC(=O)C1=C(C)N(c2ccccc2)/C(=C/c2cccs2)C1=O` the Potency was inconclusive [inhibitor, single point].
For `N=c1c(C(=O)NC2CCCCC2)cc2c(=O)n3ccccc3nc2n1Cc1ccco1`, the Potency was active: 3.7 µM.
With `CCCCNC(=O)C1CCN(S(=O)(=O)N2CCCCCC2)CC1` the “activity change, negative = inhibition” value was inactive: -4.89%.
With `Cc1ccc(CN2CCSc3ccc(C(=O)NC4CCN(Cc5ccccc5)CC4)cc32)cc1` the Potency was inconclusive [inhibitor, single point].
In the case of `CN1CCN(c2nc(C#N)cc(-c3ccccc3)n2)CC1`, the Potency was inconclusive [inhibitor, single point].
For `Cc1ccc(C(=O)OCC(=O)N(C)C2CCS(=O)(=O)C2)cc1S(=O)(=O)N1CCOCC1` (centres undefined), the “activity change, negative = inhibition” value was inactive: -7.32%.
In the case of `Fc1ccc(Cn2nnc(-c3ccc(CN4CCOCC4)cc3)n2)cc1`, the Potency was inconclusive [inhibitor, partial curve, poor fit].
In the case of `CN(Cc1ccccc1)C(=O)c1nc2ccccn2c1CNCCOc1cccnc1`, the Potency was inconclusive [inhibitor, partial curve, poor fit].
With `Cc1ccc(NC(=O)CN(C)C(=O)Cn2ccsc2=N)cc1` the “activity change, negative = inhibition” value was inactive: 0%.
With `CC(C)CCN(C(=O)c1ccc(N2CCCC2=O)cc1)c1c(N)n(Cc2ccccc2)c(=O)[nH]c1=O` the Potency was inconclusive [inhibitor, single point].
In the case of `O=C(O)COCC(=O)N1CCc2c([nH]c3ccccc23)C1C(F)(F)F` (centres undefined), the “activity change, negative = inhibition” value was inactive: -2.19%.
With `O=C(Nc1nc2n(n1)C(c1ccccc1)C=C(c1ccccc1)N2)c1ccco1` (centres undefined) the Potency was active: 8.28 µM.
In the case of `COc1ccc(OC2CCN(S(=O)(=O)c3ccc(C(C)=O)cc3)CC2)cc1`, the Potency was inconclusive [inhibitor, full curve, poor fit].
With `Cc1cccc(C)c1OCC(=O)Nc1ccccc1N1CCCCC1` the Potency was active: 11.7 µM.
For `O=C(Cc1csc(Nc2nc(=S)[nH]c3ccccc23)n1)NCCCN1CCN(c2cccc(Cl)c2)CC1`, the Potency was inconclusive [inhibitor, single point].
For `O=C(CC1C(=O)NCCN1Cc1c(F)cccc1Cl)NCCCN1CCCC1=O` (centres undefined), the “activity change, negative = inhibition” value was inactive: -4.03%.
With `COc1cc(CNc2ncc(-c3ccc(Cl)cc3)n2C)cc(OC)c1OC` the Potency was inconclusive [inhibitor, single point].
For `COc1ccc(OC)c(S(=O)(=O)N2CCCCC2C(=O)N2CCN(c3ccccn3)CC2)c1` (centres undefined), the Potency was active: 11.7 µM.
For `CC/C(O)=C1\C(=O)CCCC1=NCc1nc2ccccc2[nH]1`, the Potency was inconclusive [inhibitor, full curve].
For `Cc1ccc(S(=O)(=O)N2CCN(C(=O)c3c(-c4ccccc4)noc3C)CC2)cc1`, the “activity change, negative = inhibition” value was inactive: -7.27%.
For `COc1ccc([N+](=O)[O-])cc1NC(=O)CC1SC(=Nc2cccc(C)c2C)N(/N=C/c2cccc(OC)c2OC)C1=O` (centres undefined), the Potency was inconclusive [inhibitor, partial curve].
